# Reference: article PMC6919601, “Identification of Plasmodium dipeptidyl aminopeptidase allosteric inhibitors by high throughput screening” (PLoS ONE, 2019)
# Screen size: about 110,000 compounds; about 230 (0.21%) showed an effect of 50% or more. Some of the results follow.
# Molecular target: DPAP1 (Plasmodium falciparum, UniProt Q8IIJ9)
# Assay: primary screen, percent inhibition; read by cleavage of a fluorogenic dipeptide substrate; higher = more effect of the substance
# Design: species or system P. falciparum D10 trophozoite lysates; single well
# 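Note: 30 min substrate incubation versus DMSO and 10 µM JCP410 controls.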
# Chain of DPAP1 (Q8IIJ9 whole entry, looked up): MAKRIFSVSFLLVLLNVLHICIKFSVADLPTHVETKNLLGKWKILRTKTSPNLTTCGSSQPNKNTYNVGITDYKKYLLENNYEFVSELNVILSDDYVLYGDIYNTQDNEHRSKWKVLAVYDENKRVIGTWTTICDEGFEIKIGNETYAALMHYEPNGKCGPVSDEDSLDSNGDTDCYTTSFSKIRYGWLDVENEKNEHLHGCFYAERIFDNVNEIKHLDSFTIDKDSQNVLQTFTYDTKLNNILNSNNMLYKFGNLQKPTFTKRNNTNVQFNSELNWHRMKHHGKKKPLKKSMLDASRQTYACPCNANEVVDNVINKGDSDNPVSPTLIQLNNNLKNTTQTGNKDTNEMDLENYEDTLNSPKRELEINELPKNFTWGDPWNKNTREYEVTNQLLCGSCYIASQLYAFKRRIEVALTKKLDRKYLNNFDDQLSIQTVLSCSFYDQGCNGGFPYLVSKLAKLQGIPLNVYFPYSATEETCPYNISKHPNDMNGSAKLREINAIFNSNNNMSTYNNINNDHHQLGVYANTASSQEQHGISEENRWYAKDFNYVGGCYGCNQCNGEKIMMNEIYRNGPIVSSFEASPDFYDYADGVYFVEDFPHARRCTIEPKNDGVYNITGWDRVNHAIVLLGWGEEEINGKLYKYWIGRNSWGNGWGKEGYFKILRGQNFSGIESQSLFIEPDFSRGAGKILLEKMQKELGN
row,Compound,% Inhibition @ 10 uM [%]
1,CS(=O)(=O)Oc1ccc(/C=C2/C(=N)N3C(=NC2=O)SN=C3S(C)(=O)=O)cc1Cl,0.163
2,CCn1nc(C(=O)Nc2ccc(C)c(C)c2)c(Cl)c1Cl,-3.16
3,Cc1ccccc1Cn1ccn(Cc2ccc(Cl)cc2)c(=O)c1=O,-2.88
4,Cc1ccccc1C1=N/C(=C\c2cccn2C)C(=O)O1,4.54
5,CN(C1CCCCC1)C(CNS(=O)(=O)c1ccccc1)c1ccccc1 (stereo not drawn),1
6,COc1ccccc1C(=O)Nc1ccc(C(=O)c2ccccc2)cc1,-0.884
7,CCC(C(=O)Nc1ccc(N(CC)CC)cc1)c1ccccc1 (stereo not drawn),-6.65
8,CCN1C2=C(C(=O)CC(C)(C)C2)C(c2cc(OC)c(O)c(SC#N)c2)C2=C1CC(C)(C)CC2=O,6.31
9,O=C(c1ccc(CS(=O)c2ccccc2)o1)N1CCC2(CC1)OCCO2 (stereo not drawn),-6.89
10,CSCCC(C(=O)Nc1cccc2ccccc12)N1C(=O)c2ccccc2C1=O (stereo not drawn),2.33
11,CC(C)CNC(=O)c1cccc(Cn2cc(Cl)cn2)c1,-6.94
12,CCc1oc(C(=O)O)cc1CN1CCOCC1,-7.33
13,O=C(O)CCCNc1nc(Cl)nc(N2CCCCC2)n1,-5.51
14,CC(C)(C)NC(=O)CCS(=O)(=O)c1ccccc1,-1.84
15,CCOC(=O)c1c(C)[nH]c(C)c1S(=O)(=O)NCC(=O)Nc1cc(C)nc2ccccc12,-1.59
16,COc1ccc(-c2nc3s/c(=C\c4ccc(C)cc4)c(=O)n3n2)cc1OC,2.24
17,Cc1ccc2c(c1)c1c(c(=O)n(Cc3ccccc3)c(=O)n1CC(N)=O)n2C,-0.401
18,C=Cc1ccc(CSc2nc3ncccc3o2)cc1,7.72
19,CCOC(=O)N1CCN(C(=O)CSCc2nc(-c3ccc(CC)cc3)oc2C)CC1,0.689
20,N#Cc1cc2c(nc1SCC(=O)O)CCCCC2,-0.68
21,Cc1ccc(C(=O)Nc2cccc(C)c2)cc1,-5.84
22,CCOC(=O)c1cc(-c2ccc(F)cc2)n(CC(=O)NCC2CCCO2)c1C (stereo not drawn),1.27
23,Cc1ccc(C(=O)Nc2ccccc2C(N)=O)cc1,-2.42
24,CC1=C(C(=O)Nc2cccnc2)C(c2ccncc2)n2nc(-c3ccccc3)nc2N1 (stereo not drawn),-17
25,Cc1ccccc1CSc1nc(O)c2[nH]cnc2n1,-5.18

row,Compound,% Inhibition @ 10 uM [%]
1,Cc1ccc(Cl)cc1-n1ncc2c(N3CCN(CCO)CC3)ncnc21,-3.2
2,O=C(CSc1cn(CC(=O)N2CCCC2)c2ccccc12)NCCc1ccccc1,3.77
3,CC(C)C[C@H](NC(=O)OCc1ccccc1)C(=O)NC1(C#N)CC[SH+](O)(O)CC1,0.173
4,CCOc1ccc(NC(=O)c2ccc(C)cc2)cc1,3
5,CCN(CC)CCN(CC)Cc1ccc(Cl)cc1Cl,-2.34
6,O=C(CCn1c(=O)c2cccn2c2cccnc21)N1CCC(N2CCCCC2)CC1,2.6
7,Cn1cnc2c(=O)oc3ccc(S(=O)(=O)N4CCN(C(=O)c5ccco5)CC4)cc3c21,1.14
8,COc1ccc(NC(=O)c2cc(Cl)c(Cl)cc2C(=O)O)cc1,-1.95
9,Cc1coc2c(C)c3oc(=O)c(CC(=O)NCCc4ccccc4)c(C)c3cc12,0.895
10,Cc1cc(Cl)ccc1-n1c(S)nnc1CN1CCN(C)CC1,-2.42
11,CC1=CC2=NC(=O)/C(=C\c3ccc(OCc4ccccc4)c(Cl)c3)C(=N)N2O1,-3.23
12,Cc1cc(C)c2c(C(C)(C)C)nn(-c3ccccc3)c2n1,4.94
13,O=C(NCc1ccccc1)c1c(NS(=O)(=O)c2ccccc2)sc2c1CCCC2,2.95
14,O=C(/C=C/c1ccccc1)NCCn1ccc2ccccc21,-7.51
15,O=c1cccc2n1C[C@H]1C[C@@H]2CN(Cc2ccc(F)cc2)C1,-0.13
16,Cc1cccc(NC(=O)c2nn(C)c3c2CSc2ccccc2-3)n1,-3.51
17,COc1ccc(-n2nc3c(c2NC(=O)c2cc(OC)c(OC)c(OC)c2)CS(=O)(=O)C3)cc1,6.85
18,Cc1ccc(NC(=O)c2ccc(C(C)(C)C)cc2)cc1O,-1.09
19,CCOC(=O)C1=C(C)N=c2s/c(=C\c3ccc(N(CC)CC)cc3)c(=O)n2C1c1ccccc1Cl (stereo not drawn),-7.19
20,CCC(=O)Nc1ccc(NC(=N)Nc2nc(C)cc(C)n2)cc1,-8.94
21,Cc1ccc(NC(=O)CN(c2ccccc2F)S(=O)(=O)c2ccccc2)c(C)c1,3.66
22,CC(=O)N/C(=C/c1ccccc1)C(=O)N1CCN(C(=O)/C(=C\c2ccccc2)NC(C)=O)CC1,-2.24
23,Fc1ccc(Cn2cccc2C2=NC(c3ccccc3)CO2)cc1 (stereo not drawn),-1.58
24,Cc1[nH]c2ccccc2c1C(c1cccnc1)N1CCC(C)CC1 (stereo not drawn),1.05
25,Cc1ccc(C2=NN(C(=O)CCCC(=O)O)C(c3ccc4c(c3)OCO4)C2)cc1 (stereo not drawn),-2.77

row,Compound,% Inhibition @ 10 uM [%]
1,CCCn1c2ccccc2c2cnn(CC(=O)NCC3CCN(Cc4cccc(C)c4)CC3)c(=O)c21,-4.25
2,COCCN1C(=O)c2ccc(C34CC5CC(CC(C5)C3)C4)cc2C1=O,-3.53
3,Oc1ccc(CN2CCC3(C=Cc4ccccc43)CC2)cc1,-1.64
4,CC(=O)c1cc2c(cc1NC(=O)c1ccccc1C)OCO2,3.49
5,Cc1cc(C)nc(N2CC(=O)N(CCOc3ccc(Br)cc3)C2=O)n1,6.37
6,CS(=O)(=O)c1ccc2ccc(S(C)(=O)=O)cc2c1,-1.91
7,COc1ccccc1CN1CCN(Cc2cccc(OC)c2OC)CC1,13.3
8,Cc1cccc(N(CC(=O)Nc2ccc3c(c2)OCO3)S(C)(=O)=O)c1C,-1.82
9,Cc1ccc(C(=O)Nc2ccc(NC(=O)c3cccs3)cc2)cc1,-9.4
10,O=C(Nc1ccccc1F)c1ccc(CNS(=O)(=O)c2cccc(Cl)c2)cc1,-1.61
11,COc1ccc(CC(=O)Nc2sc3c(c2C#N)CC(C)(C)NC3(C)C)cc1,3.23
12,Cc1cccc(C(=O)Nc2nnc(S(=O)(=O)N3CCCCCC3)s2)c1,-3.51
13,O=C(CSc1nnc2ccccn12)c1ccc(Cl)cc1,4.08
14,CC(=O)N1c2ccccc2N=C2CC(C)(C)CC(O)=C2C1c1cccc(O)c1 (stereo not drawn),3.65
15,O=C(NC1CCCC1)c1ccccc1Cl,-1.62
16,Cc1nnc2sc(-c3csc4c3CCCC4)nn12,-0.0735
17,CCN1CCN(C(=O)Nc2ccc(Cc3ccc(NC(=O)N4CCN(CC)CC4)cc3)cc2)CC1,-3.77
18,CCC1CCc2c(nc3ccccc3c2O)O1 (stereo not drawn),-1.37
19,CCOC(=O)N1CCC(NC(=O)c2cnn3c(C)c(Cc4cc(C)ccc4C)c(C)nc23)CC1,-0.406
20,COc1cccc(C2CC(C(F)(F)F)n3ncc(C(=O)N4CCCCC4C)c3N2)c1 (stereo not drawn),0.0289
21,COc1cc(C2CC(=O)NC3=C2C(=O)CC(c2ccc(F)cc2)C3)c(OC)cc1Br (stereo not drawn),4.78
22,O=C(NCCCN1CCCC1=O)c1cc2nc(-c3ccco3)cc(C(F)(F)Cl)n2n1,0.323
23,COc1cccc(C2C(C#N)=C(N)Oc3cc(C)n(CCN4CCOCC4)c(=O)c32)c1OC (stereo not drawn),2.1
24,CCCOc1ccc(C(=O)C2=C(O)C(=O)N(Cc3cccnc3)C2c2ccccc2F)c(C)c1 (stereo not drawn),1.52
25,CC(NC(=O)c1cccs1)c1ccc2c(c1)OCCCO2 (stereo not drawn),3.8

row,Compound,% Inhibition @ 10 uM [%]
1,Cn1ncc(C(=O)N2CCOCC2)c1C1CCN(C(=O)OC(C)(C)C)CC1,7.3
2,NS(=O)(=O)c1ccc(CNC(=O)c2ccccc2F)cc1,-0.661
3,CCC(C(=O)O)n1cnc2sc3c(c2c1=O)CCCC3 (stereo not drawn),-7.25
4,COc1ccc(CCN2C(=O)c3oc4cc(C)cc(C)c4c(=O)c3C2c2cccc(O)c2)cc1OC (stereo not drawn),6.34
5,NC(=O)c1ccc(NC(=O)CN(Cc2ccccc2)S(=O)(=O)c2ccccc2)cc1,1.64
6,CC1=C(C(=O)Nc2ccc(C)cc2)C(c2c(Cl)cccc2Cl)NC(=O)N1 (stereo not drawn),-12
7,O=C(Nc1nc[nH]n1)C(Sc1ccccc1)c1ccccc1 (stereo not drawn),-3.13
8,O=S(=O)(c1ccc(S(=O)(=O)N2CCN(c3ncccn3)CC2)cc1)N1CCCCCC1,5.35
9,Cc1cc(C)c2c(n1)SCC(=O)N2CC(=O)NCCC(C)C,-4.15
10,O=S(=O)(Cc1ccccc1)NCCc1ccncc1,2.57
11,OCC1CCN(Cc2ccccc2)CC1,-3.42
12,CCN(CC)C(=O)CSc1nc2c(c(C(F)(F)F)c1C#N)CCC2,5.64
13,CCOc1ccccc1N1CCN(C(=O)c2cc(Cl)ccc2OC)CC1,5.26
14,Cc1ccc(N2C(=O)c3ccccc3C2=O)cc1C,4.58
15,O=C1CCCC2=C1C(c1cccnc1)Nc1ccc3ccccc3c12 (stereo not drawn),4.12
16,Cc1ccc(C)c(F)c1F,-0.778
17,COc1ccccc1/C=C/C=c1\sc2nc(=O)c(Cc3ccccc3)nn2c1=O,-9.16
18,O=C(CN(Cc1ccccc1)S(=O)(=O)c1ccc(Cl)cc1)NCc1ccco1,2.17
19,C=CCNC(=S)Nn1c(C)nnc1-n1nc(C)cc1C,-3.41
20,Cn1ncc2c(N(CCO)Cc3ccccc3)ncnc21,5.38
21,CNC(=O)Nc1ccc(C(=O)O)cc1,-1.97
22,COc1ccc(CN2CCN(C(=O)Cn3ncn4cccc4c3=O)CC2)c(OC)c1OC,-7.52
23,Clc1ccc(-c2nnn(CN3CCCCC3)n2)cc1,-6.84
24,COCCCNC(=O)C1c2ccccc2C(=O)N(CC(C)C)C1c1cccs1 (stereo not drawn),1.42
